Test results reported in PubChem BioAssay (NCI).
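Values below derive from 48-hour exposures of cells grown in 96-well plates, with endpoints linearly interpolated between the two concentrations bracketing the appropriate inhibition level. Abbreviation: GI50, concentration required for 50% inhibition of growth. TGI is the concentration that stops growth completely.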

Test system: NCI-H322M lung
Assay: growth of human tumour cells (NCI), 48 h

COc1cc2c(cc1OC)C(Sc1ccc(C)cc1)c1c(nc(N)c(C#N)c1N)O2 (configuration not stated)
GI50: 1540 nM
TGI: 2890 nM
